In the RNAGym collection of RNA variant scans (doi:10.7554/elife.90254) one finds self-cleavage data, which are given here for 56 variants.

Read counts are not given, so values of variants with three or more changes are uncertain.

B1: LINE1-mini (parent)
chain: GGCAGAGCUCAACACAGCGUGGCAAAGUGGCUGUGGCUAGACUGCC

The variants in this series derive from B1. The series can be described thus: self-cleavage, relative activity (ratio to wild type); higher = more cleavage; in vitro, sequencing; the parent is a self-cleaving ribozyme.
Take CGCAGAGCUCAACACAGCUUGUAAUAGUGGCUGUGGCUAGACUGCC [G1C G19U G22U C23A A25U]: the self-cleavage was 0.14.

With UGCAGAGCUCAACCCAGCGUGGCAAAGUUGCUGUGGCUAGACUGCC [G1U A14C G29U], the self-cleavage was 0.03.

Take UGCAGAGCUCCACACAGCGUGGCAACGUGGGGGUGGCUAGACUGCC [G1U A11C A26C C31G U32G]: the self-cleavage was 0.02.

On to UGCAGGGCUCAGCACAGCGUGGCAAAGUGGCUGUGGUUAGACUGCC [G1U A6G A12G C37U], for which the self-cleavage was found to be 0.01.

For the variant UGCAGCGCUCAAUACAGCGUGGCACAGGGGCUGUGGCUAGACUGCC [G1U A6C C13U A25C U28G], the self-cleavage turned out to be 0.01.

As to UGCAGAGCUCAUCACAGCGUGGCCAAGUGGCUGUGGCUAGACUGAC [G1U A12U A24C C45A], the self-cleavage came out at 0.04.

For CGCAGAGCUCAACACAGCGUGGCAAAGUGGCUGUUGAUAGACUGCC [G1C G35U C37A], the self-cleavage is 0.02.

On to CGCAGAGCGCAACACAGCGUGGCAAAUUGGCUGUGGCUAGACUGCC [G1C U9G G27U], for which the self-cleavage was determined as 0.03.

In the case of UGCAGAGCUCCGCACAGCGUGGCAAAGUGGCUGUGGCUAGACUGCC [G1U A11C A12G], the self-cleavage was determined as 0.01.

Regarding UGCAGUGGUCAACACAGCUUUGCAAAGGGGCUGUGGCUAGACUGCC [G1U A6U C8G G19U G21U U28G], the self-cleavage worked out at 0.04.

Consider CGCAGAGCCUAACAAAGCGUGGCAAAGUGGCUGUUGCUAGACUACC [G1C U9C C10U C15A G35U G44A], for which the self-cleavage came out at 0.01.

Consider UGCCGAGCUCAACACAGCGUGGCAAAGUGGAUGUGGCUAGACUGCC [G1U A4C C31A], for which the self-cleavage is 0.01.

On to CGCAGAGCAUAACACAGCGUGGCAAAGUGGCUGUGGCUAGACUGCC [G1C U9A C10U], for which the self-cleavage was 0.01.

CGCAGAGCUCAACACAGCGUGGCAAAGUGGCUCUGGCUACACUGCC [G1C G33C G40C]: the self-cleavage is 0.

For CGCAGAGCUCAACACAGCGUGGCAAACUGGCUGUGGCUAGACUGAC [G1C G27C C45A], the self-cleavage amounted to 0.08.

As to UGCAGGGCUCAACACCGCGUGGCAAAGUGGCUGUGGCUAGACUGCC [G1U A6G A16C], the self-cleavage was 0.

Regarding UGCAGAGCUCAACACGGCGUGGCAAAGUGGCUGUUGCUAGACUGCC [G1U A16G G35U], the self-cleavage was 0.

CGCAGAGCUCAACACAGCGUGGCAAAAUGGCUGUGUCUAGACUGCC [G1C G27A G36U]: the self-cleavage was determined as 0.

Regarding CGCAGAGCUCAACACAGCGUCGCAAAGUGGCUGUGGCUAGAGUGCC [G1C G21C C42G], the self-cleavage is 0.

Turning to UGCAGAGCUCAACACAGCGUGGCGAAGUGGCUGUGGCUCGACUGCC [G1U A24G A39C], the self-cleavage came out at 0.07.

Regarding CGCAGAGCGCAACACCCUGUGGCAAAGUGACUGUGGCUAGACCGCC [G1C U9G A16C G17C C18U G30A U43C], the self-cleavage turned out to be 0.02.

Turning to UGCAGAGCUCAACGCAGGGUGGCAAUGUGGCUGUGGCUAGACUGCC [G1U A14G C18G A26U], the self-cleavage stood at 0.03.

Consider UGCAGAGCUCAACGCAGCGUGGCAAAGUGGCGGUGGCUAUAGUGCC [G1U A14G U32G G40U C42G], for which the self-cleavage came to 0.09.

CGCAGAGCUCAACACAGCGUGGCAAAGUGAAUGUGGCUAUACUGCC [G1C G30A C31A G40U]: the self-cleavage was determined as 0.02.

In the case of UGCAGGGCUCAACACAGCGUGGAAAAGUGGCUGUGGCUAGACUCCC [G1U A6G C23A G44C], the self-cleavage turned out to be 0.06.

For the variant UGCAGCGCUCAACACCGCGUGGCAAAGUGGCUGUGGCUAGACUGCC [G1U A6C A16C], the self-cleavage amounted to 0.06.

Regarding UGCAGAGCUCCACACAGCGUGGCAAAGUGGCUGUGGAUAGACUGCC [G1U A11C C37A], the self-cleavage stood at 0.01.

As to UGCAGAGCUCAACCCAGCGUGGCAAAGUGGCUGUGGCGAUACUGCC [G1U A14C U38G G40U], the self-cleavage came to 0.01.

For the variant CGCAGAGCUCAACACAGCUUGGCAAAUUGGCUGUGGCUAGACUGAC [G1C G19U G27U C45A], the self-cleavage came to 0.02.

In the case of CGCAGAGCUCAACACAGCGAGGCAUAGUGGCUGCGGCUAGACUGCC [G1C U20A A25U U34C], the self-cleavage was found to be 0.04.

Consider UGCAGGGCUCAACACAGCGUGGAAAAGUGGCUGUGGCUAGACUGCC [G1U A6G C23A], for which the self-cleavage is 0.16.

For the variant CGCAGAGCUCAACACAGCGUGGCAAAGUCGUUGUGGCUAGACUGCC [G1C G29C C31U], the self-cleavage was determined as 0.18.

Turning to UGCAGUGCUCCACACAGCUUGGCAAAGUGGCUGUAGCUAGACUGCC [G1U A6U A11C G19U G35A], the self-cleavage was determined as 0.01.

As for CGCAGAGCUCAACACAGCGUGACAAAGUGGCUUUGGCUAGACUGCA [G1C G22A G33U C46A], the self-cleavage amounted to 0.02.

For the variant UGCAGAGCUCUACACAGCGUGGCAAAGUGGCUGUGGUUAGACUGCC [G1U A11U C37U], the self-cleavage was determined as 0.02.

As for CGCAGAGCUCAACACAGCGUGGCAAAGUGGCUUUGGCAAGACUGCC [G1C G33U U38A], the self-cleavage is 0.01.

As for UGCAGGGCUCAACAUAGCCUGGCAAAGUGGCUCUGGCUAGACUGCU [G1U A6G C15U G19C G33C C46U], the self-cleavage came out at 0.02.

With UGCAGGGCUCAACACAGCGUGGCAAAGUGGCUGUGGCUAGACUGAC [G1U A6G C45A], the self-cleavage came out at 0.04.

In the case of CGCAGAGCUCAACACAGCGUGGCAAAGUGCCUGUGGCUAGACUACC [G1C G30C G44A], the self-cleavage amounted to 0.02.

As for UGCAGCGCUCAACACAGCGUGGCAAGGUGGCUGUGGCUAGACUGCC [G1U A6C A26G], the self-cleavage came to 0.36.

On to UGCAGAGCUCCACACAGCCUGGUAAAGUGACUGUGGCUAGACUACC [G1U A11C G19C C23U G30A G44A], for which the self-cleavage is 0.01.

Turning to CGCAGAGCUCAACACAGCGUGGCAAAGUGGCUGUGGCAAGACUGCG [G1C U38A C46G], the self-cleavage came to 0.04.

On to UGCAGUGCUCAACACAGUGUGGCAAAGUGGCGGUGGCUAGUCUGCC [G1U A6U C18U U32G A41U], for which the self-cleavage came to 0.02.

As for UGCAGGGCUCAACACUGCGUGGCAAAGUGGCUGUGGGUAGACUGUC [G1U A6G A16U C37G C45U], the self-cleavage came to 0.

With CGCAGAGCUCAACACAGCGUGGCAAAGUGGCUGUAGCUAGAAUGCC [G1C G35A C42A], the self-cleavage is 0.03.

Turning to CGCAGAGCCCAACACAGCGUGGCAGAGUGGCUGCGGCGAGACUGCC [G1C U9C A25G U34C U38G], the self-cleavage was determined as 0.01.

On to CGCAGAGCUCAACACAGCGUGGCAAAGAGGCUGUGGGUAUAUUGCC [G1C U28A C37G G40U C42U], for which the self-cleavage worked out at 0.11.

As for CGCAGAGCUCAACACAGCGUGGCAAAGUGGCGGUGGCUAGACUGCG [G1C U32G C46G], the self-cleavage is 0.03.

On to UGCAGAGCUCAACACGGCGUGGCAAAGUCGCUGUGGCUAGACUGCA [G1U A16G G29C C46A], for which the self-cleavage was found to be 1.25.

On to CGCAGAGCUCAACACAGCUUGGCAAAGUGGCUGUGGCUAGACCGCC [G1C G19U U43C], for which the self-cleavage was 0.02.

For the variant CGCAGAGCUCAACACAGCGUGGCAAAGUAGCUGUGGCUAGACUGCU [G1C G29A C46U], the self-cleavage turned out to be 0.38.

For UGCCUAGCUCAACACAGCGUGGCAAAGUGGAUGUGGUUAGACUGCC [G1U A4C G5U C31A C37U], the self-cleavage is 0.03.

As for UGCAGAGCUCGACACAGCGUGGCAAAGUGUCUGUGGCUAGACUGCC [G1U A11G G30U], the self-cleavage was 0.

For UGCAGAGCUCAUCACUGCGUGGCAAAGUGGCUGUGGCUAAACGGCC [G1U A12U A16U G40A U43G], the self-cleavage came out at 0.06.

Regarding CGCAGAGCUCAACACAGCGUAGCAAAGUGGCAGUGGCUAGACUGCC [G1C G21A U32A], the self-cleavage is 0.02.

On to UGCAGAGCUCAACACCGCGUGGCAAAGUGGCUGUGGAUAGACUGCC [G1U A16C C37A], for which the self-cleavage is 0.09.
